Assay results published in PubChem BioAssay AID624417 (National Center for Advancing Translational Sciences (NCATS), 2012).
“And” between values parts separate entries of the source, which are not always exact repeats. Identical values can stand only once. The whole screen tested about 410,000 compounds, of which about 6,400 (1.6%) were called active. The inconclusive results got no clear call from the source; some entries with a clear call stand among them for comparison. Calls follow the shape of the dose curve; as a rule, active = well fitted inhibition curve with a large enough effect; inconclusive = small, poorly fitted or top-dose-only effect; inactive = no such curve, though single readings can be large or run the other way. Where the call is inconclusive, the potency comes from a doubtful curve fit.

Target: Glucagon-like peptide 1 receptor (Homo sapiens) (UniProt P43220)
Sequence of UniProt P43220 (P43220 whole entry, looked up): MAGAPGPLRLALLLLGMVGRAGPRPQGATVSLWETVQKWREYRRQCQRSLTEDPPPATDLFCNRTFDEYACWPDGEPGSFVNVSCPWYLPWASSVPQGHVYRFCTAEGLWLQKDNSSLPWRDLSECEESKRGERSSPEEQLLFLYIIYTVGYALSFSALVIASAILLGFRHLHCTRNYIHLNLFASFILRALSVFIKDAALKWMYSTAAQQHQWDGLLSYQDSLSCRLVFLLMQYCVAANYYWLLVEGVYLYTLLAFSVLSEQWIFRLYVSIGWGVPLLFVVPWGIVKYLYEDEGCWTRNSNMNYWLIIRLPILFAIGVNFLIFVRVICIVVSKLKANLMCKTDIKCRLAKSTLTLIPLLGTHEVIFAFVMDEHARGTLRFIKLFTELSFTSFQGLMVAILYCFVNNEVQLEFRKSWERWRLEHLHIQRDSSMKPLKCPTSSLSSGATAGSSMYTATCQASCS
Test: qHTS of GLP-1 Receptor Inverse Agonists (Inhibition Mode); also: nearly all actives have a fitted effect of over 55% in size
Settings: HEK293 GLP-1R CRE-luciferase, luminescence, 24 h, GLP-1R form is constitutively active; activity change, negative = inhibition: at 38.3 µM (top of the series) unless noted
In short: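 Readout was luciferase luminescence, measured 12 min after detection reagent at room temperature. Beforehand, GLP-1R reporter HEK293 cells had sat 12 h, then received compounds for 24 hr at 37 deg C.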
% is scaled to controls: 0 for no effect and ±100 for the full control effect; potency is read from the fitted curve at half-maximal effect; tags tell the direction and shape of the fitted curve.

Potency, active:
Cc1ccc(NC(=S)NC(NC(=O)c2ccccc2C)C(Cl)(Cl)Cl)c(C)c1 (stereo not drawn) 5.62 µM

Potency, inconclusive:
COc1ccc(-n2c(C)cc(C3=NNC(=NC4CC4)SC3)c2C)cc1 8.91 µM [inhibitor, partial curve]
Cc1cccc(N2CCN(C(=O)C3CCN(c4ncnc5c4nc4n5CCCCC4)CC3)CC2C)c1 (stereo not drawn) 11.2 µM [inhibitor, single point] and 14.1 µM [inhibitor, single point]
O=C(NCc1ccc(C(F)(F)F)cc1)c1cccc2c(-c3cccnc3)coc12 28.2 µM [inhibitor, single point]
Cc1ccc(S(=O)(=O)N2[C@H](CC(=O)c3cccs3)OC[C@@H]2C(C)C)cc1 28.2 µM [inhibitor, single point]
COc1cc(Nc2ncc3c(n2)CCN(Cc2cccc(C)c2)C3)cc(OC)c1 10 µM [inhibitor, partial curve, poor fit]
CC1Cc2ccccc2N1S(=O)(=O)c1ccc(Cl)nc1 (stereo not drawn) 5.01 µM [inhibitor, full curve, poor fit]
CCn1c(C)nc([N+](=O)[O-])c1Sc1ccc(F)cc1 10 µM [inhibitor, partial curve, poor fit]
NS(=O)(=O)c1ccc(CCNCc2cc(Br)ccc2OCc2ccccc2F)cc1 10 µM [inhibitor, partial curve, poor fit]
COc1ccc([N+](=O)[O-])cc1NC1CCN(C(=O)c2cccs2)CC1 11.2 µM [inhibitor, partial curve, poor fit]
O=C(C1CCCN(S(=O)(=O)c2cc(Cl)ccc2Cl)C1)N1CCCCCC1 (stereo not drawn) 25.1 µM [inhibitor, partial curve, poor fit]
O=C(Oc1c(Br)cc([N+](=O)[O-])cc1Br)c1cccnc1 11.2 µM [inhibitor, partial curve, poor fit]
Cc1c(C(=O)NCCc2ccccc2)oc2ccccc12 28.2 µM [inhibitor, single point]
CC(=O)C1=C(O)C(=O)N(c2ccc(Br)cc2)C1c1cccc(F)c1 (stereo not drawn) 5.62 µM [inhibitor, full curve, poor fit]
CCN(CC)C(=O)C1=C(C)N(Cc2ccc(OC)cc2)C(=O)C(CC(=O)NCCCCc2ccccc2)C1 (stereo not drawn) 14.1 µM [inhibitor, single point]
CCc1cc(-c2[nH]ncc2-c2ccc([N+](=O)[O-])cc2)c(O)cc1OC 10 µM [inhibitor, partial curve, poor fit]
CCCCn1nnnc1C(c1cc2ccccc2o1)N(C)Cc1ccccc1 (stereo not drawn) 11.2 µM [inhibitor, single point]
CCCc1nc(SCC(=O)N2CCCC2)c2ccccc2n1 28.2 µM [inhibitor, single point]
Cc1ccc(N(Cc2ccccc2F)S(C)(=O)=O)c(C)c1 11.2 µM [inhibitor, partial curve]
CC(C)Sc1nnc(CNC(=O)C23CC4CC(CC(C4)C2)C3)n1C1CCCCC1 2 µM [inhibitor, full curve, poor fit]
COc1ccc(C2CC(c3ccccc3)=NN2C(=O)COC(=O)c2cccc(N)c2)cc1 (stereo not drawn) 10 µM [inhibitor, partial curve, poor fit]
CCOC(=O)c1sc2nc(CC(=O)OC)nc(NCCN(CC)CC)c2c1C 11.2 µM [inhibitor, partial curve, poor fit]
O=C(Nc1ccccc1)Nc1ccc2nnsc2c1 28.2 µM [inhibitor, single point]
C=CCN(c1ccccc1)S(=O)(=O)c1cccc(C(=O)NCC(c2cccs2)N2CCOCC2)c1 (stereo not drawn) 28.2 µM [inhibitor, single point]
COc1ccccc1N(C)S(=O)(=O)c1ccc(C(=O)N(C)Cc2cccc(OC)c2OC)cc1 31.6 µM [inhibitor, single point]
Cc1nc(/N=C(\N)NC(=O)NC2CCCCC2)nc2ccccc12 14.1 µM [inhibitor, single point]
CCCCCCNc1c(C(=O)OCC)c(=O)[nH]c2ccccc12 10 µM [inhibitor, partial curve, poor fit]
CCOC(=O)CNC(=S)N(Cc1ccc(C)cc1)Cc1ccc(C)o1 11.2 µM [inhibitor, partial curve, poor fit]
COc1ccc(/C=C\c2onc(C)c2S(=O)(=O)N2CCC(C(=O)Nc3cccc(OC)c3)CC2)cc1 12.6 µM [inhibitor, single point]
FC(F)(F)c1ccc(/C=N/N2CCN(Cc3ccccc3)CC2)cc1 11.2 µM [inhibitor, partial curve, poor fit]
Cc1ccc(Cc2c(-c3ccc(F)cc3)nc3ccc(Br)cn23)cc1 28.2 µM [inhibitor, single point]
Cc1nc(-c2cccc(NC(=O)c3cccs3)c2)cs1 28.2 µM [inhibitor, single point]
Cc1ccc(S(=O)(=O)Nc2ccc3nc(-c4ccc(F)cc4)oc3c2)cc1 28.2 µM [inhibitor, single point]
O=C(CN(C(=O)c1ccccc1)C(=O)c1ccccc1)OCc1ccccc1 28.2 µM [inhibitor, single point]
O=C(OCc1ccc(Cl)c(Cl)c1)c1ccc[nH]1 28.2 µM [inhibitor, partial curve, poor fit]
O=C(NCc1ccc(C(F)(F)F)cc1)C1CC(c2ccccc2C(F)(F)F)=NO1 (stereo not drawn) 12.6 µM [inhibitor, single point]
Nc1ccc(C(=O)N2N=C(c3ccc(F)cc3)CC2(O)C(F)(F)F)cc1 (stereo not drawn) 14.1 µM [inhibitor, single point]
COC1=C(Nc2ccc(OC)cc2)C(=O)c2ccccc2C1=O 3.16 µM [inhibitor, single point]
O=C(CSCc1cnn(-c2ccccc2)c1-n1cccc1)NCc1cccc(Cl)c1 15.8 µM [inhibitor, single point]
COc1ccccc1-c1csc(C(O)c2ccc(F)c(F)c2)n1 (stereo not drawn) 28.2 µM [inhibitor, single point]
CC1(C(=O)NCc2ccc3c(c2)OCO3)CCN1C(=O)CCc1ccc(Cl)cc1Cl (stereo not drawn) 7.94 µM [inhibitor, partial curve, poor fit]
CCn1c(-c2cccs2)nc2ccccc21 20 µM [inhibitor, single point]
CCCCNc1cccc2c1S(=O)(=O)N(CCCC)CC(COCc1ccccc1)O2 (stereo not drawn) 11.2 µM [inhibitor, partial curve, poor fit]
COc1ccc(CC(=O)N2CC3(C)CC2CC(C)(C)C3)cc1OC (stereo not drawn) 6.31 µM [inhibitor, partial curve, poor fit]
O=C(Nc1cccc(O)c1)c1ccc(S(=O)(=O)N2CCCCCC2)cc1 3.55 µM [inhibitor, partial curve, poor fit]
N#Cc1c(-n2ncnc2-c2ccc(F)cc2)sc2c1CCCCC2 14.1 µM [inhibitor, partial curve, poor fit]
Cc1cc(OCc2nc(-c3cccs3)no2)cc(C)c1Cl 28.2 µM [inhibitor, single point]
CCc1ccc(NC(=O)CSC2=C(C#N)C(c3ccco3)C3=C(CCCC3=O)N2)cc1 (stereo not drawn) 11.2 µM [inhibitor, single point]
CC(=O)c1cccc(NC(=O)CCCN(C)S(=O)(=O)c2ccc(F)cc2)c1 22.4 µM [inhibitor, single point]
Cc1ccc(NC(=O)Cn2cc(S(=O)(=O)Cc3ccc(F)cc3)c3ccccc32)cc1Cl 12.6 µM [inhibitor, partial curve, poor fit]

Activity change, negative = inhibition, inactive:
c1cncc(-c2nnc(-c3ccco3)o2)c1 0%
O=C(OCc1cc(=O)n2ccsc2n1)C1(c2ccccc2)CC1 45.4%
c1ccc(-c2nc(-c3ccncc3)no2)cc1 5.74%
COc1cccc(CNC(=O)c2cccc(S(=O)(=O)N3CCN(C)CC3)c2)c1 -7.15%
COc1ccc(CNC(=O)c2cc3ccccn3n2)cc1OC 47.5%
COc1cc(NC(=O)Cn2c(=O)ccc3cc(S(=O)(=O)N4CCCC4)ccc32)cc(OC)c1 4.09%
COc1ccc(Cl)cc1CNC[C@H]1O[C@@H](n2ccc(N)nc2=O)[C@H](O)[C@@H]1O 7%
O=C(Cn1cncn1)N/N=C/c1ccncc1 5.94%
CCC(C)NC(=O)CCC(=O)N1Cc2ccccc2Oc2ncccc21 (stereo not drawn) 2.6%
CCCSc1ncc(Cl)c(C(=O)Nc2sc3c(c2C(=O)OC)CCCC3)n1 5.17%
CC1(C(=O)NS(=O)(=O)c2cccc(F)c2)CCN1C(=O)c1cccc2ccccc12 (stereo not drawn) 25.7%
O=C(CN1CCCCCC1)N/N=C/c1ccc(Cl)c(Cl)c1 -8.19%
Cc1c(Cl)cccc1NC(=O)NC1CCCCC1 2.09%
